Experimental data reported in PubChem BioAssay AID1240 (Sanford-Burnham Center for Chemical Genomics, 2008).
The campaign covered roughly 50,000 compounds. About 800 (1.6%) showed an effect of 50% or more. The list shows a part of the results.

Molecular target: Bcl-2-like protein 10 (Homo sapiens) (UniProt Q9HD36)
Experiment: TR3 peptide-Bcl-B binding displacers, biochemical primary FP assay, phenotype converters (AID 1240);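 further: 0% = Bcl-B with tracer peptide and DMSO and 100% = tracer peptide lacking Bcl-B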
Conditions: GST-Bcl-B / FITC-TR3 peptide fluorescence polarization; stronger effect = higher value; compound at 3.75 mg/L

Chain of UniProt Q9HD36 (Q9HD36 whole entry, looked up): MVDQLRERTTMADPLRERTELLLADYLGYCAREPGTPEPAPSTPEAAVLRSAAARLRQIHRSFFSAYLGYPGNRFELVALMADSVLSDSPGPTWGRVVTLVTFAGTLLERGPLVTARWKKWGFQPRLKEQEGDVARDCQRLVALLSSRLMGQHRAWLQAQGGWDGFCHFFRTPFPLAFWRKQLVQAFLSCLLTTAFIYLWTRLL

| Compound | displacement [%] |
| --- | --- |
| O=C(Cn1c(O)c(N=NC(=O)C(=O)Nc2cccc([N+](=O)[O-])c2)c2ccccc21)Nc1ccccc1 | -11.8 |
| CCOc1ccc(/C=C2\C(=O)NC(=O)N(c3ccc(C)cc3)C2=O)cc1Cl | 3 |
| COc1cc(NC(=O)c2ccc(Cl)cc2)c(Cl)cc1N=NC1=C(O)CC(C)(C)CC1=O | -1 |
| Nc1nnc(CSCc2ccccc2)s1 | 1.8 |
| CCN(CC)CCCNC(=O)c1cc([N+](=O)[O-])ccc1Cl | -4.4 |
| COc1ccc(/C=C2/N=C(c3ccc(Br)cc3)OC2=O)cc1 | 99.4 |
| CC(=O)Nc1cccc(N2CCCC2=O)c1 | -4.2 |
| Cc1cccc(N(CC(O)CN(Cc2ccccc2)Cc2ccccc2)S(=O)(=O)c2ccccc2)c1 (configuration not stated) | 14.3 |
| COc1ccc(/C=C2\NC(=O)c3ccccc3C2=O)cc1 | 25.7 |
| O=C(NN1C(=O)c2ccc(Oc3ccc([N+](=O)[O-])cc3)cc2C1=O)c1ccco1 | 12.4 |
| O=C1NC(=Nc2ccc(Cl)c(Cl)c2)S/C1=C/c1ccccc1O | 7.8 |
| Cc1oc(C(N)=O)cc1COc1ccc(C(N)=O)cc1 | -5.7 |
| O=C(COc1ccc(F)cc1)Nc1ccc2[nH]c(=O)[nH]c2c1 | 7.6 |
| O=C(NC(=S)Nc1ccc([N+](=O)[O-])cc1)c1ccc(Cl)cc1 | -1.6 |
| Cc1ccc(OCC(=O)Nc2sc3c(c2C(N)=O)CCC3)c(C)c1 | 12.8 |
| O=C(c1ccc([N+](=O)[O-])cc1)N1CCN(Cc2ccc(F)cc2)CC1 | -14.9 |
| N#CC1=C(N)Oc2c(sc3ccccc23)C1c1cccs1 (configuration not stated) | -32.2 |
| CN1CCN(C(=O)c2cc3nc(-c4ccccc4)cc(C(F)(F)F)n3n2)CC1 | 0.7 |
| Nc1nnc(COc2ccccc2F)s1 | 7.4 |
| O=C1c2ccc(Oc3ccc4c(c3)C(=O)N(c3ccc(S)cc3)C4=O)cc2C(=O)N1c1ccc(S)cc1 | -19 |
| O=C(NNc1nc2ccccc2s1)c1ccc(Br)cc1 | -14.5 |
| CCCCNCCCCCCOc1ccccc1CC | -6 |

| Compound | displacement [%] |
| --- | --- |
| CC(C)(C)c1ccc(C(=O)Nc2sc3c(c2C(N)=O)CCCCC3)cc1 | -3.7 |
| COc1ccc(S(=O)(=O)N(Cc2ccccc2)c2ccccc2C(=O)N2CCOCC2)cc1 | -1.1 |
| COc1ccc(NC(=O)CN(c2ccc(OC)cc2OC)S(=O)(=O)c2ccc(C)cc2)c(OC)c1 | 1.7 |
| COc1ccc(Cc2cnc(NC(=O)c3cccc([N+](=O)[O-])c3)s2)cc1 | -6.9 |
| Cc1ccc(C(C)C)c(OCCNc2nc3c(c(=O)n(C)c(=O)n3C)n2C)c1 | 11.4 |
| CC(C)(C)NC(=O)CCN1C(=O)c2ccccc2C1=O | 0.8 |
| O=C(O)CSc1nnc(-c2ccc3c(c2)OCO3)n1-c1ccccc1 | 11.7 |
| O=C(CCC1CCCC1)NCC1CCCO1 (configuration not stated) | -8 |
| COC(=O)C1=C(C)N(CC(C)C)C(=O)/C1=C\c1cc(OC)c(OC)c(OC)c1 | -4.2 |
| Cc1ccc(S(N)(=O)=O)cc1NC(=O)c1ccc(Cl)cc1[N+](=O)[O-] | 3.4 |
| COc1cc(NC(=O)COc2ccc(Cl)cc2)ccc1NC(=O)c1ccco1 | 0 |
| COc1cccc(-n2c(C=C3C(=O)N(C)c4ccc(Br)cc43)nc3ccccc3c2=O)c1 | 1 |
| O=C(O)c1ccc(S(=O)(=O)c2ccc3c(c2)C(=O)N(c2ccc(Sc4ccc([N+](=O)[O-])cc4)cc2)C3=O)cc1 | 9.6 |
| COc1c(Cl)cc(Cl)cc1/C=C(\C#N)c1nn(CCO)c(N)c1C#N | 7.3 |
| O=C(Nc1nnc(SCc2ccccc2)s1)c1cccc2ccccc12 | 9.8 |
| COc1ccc(S(=O)(=O)N2CCN(C3CCCCCC3)CC2)cc1 | -14.5 |
| Oc1ccc(Cl)cc1/C=N/c1c(-c2ccco2)nc2cc(Cl)ccn12 | 7.9 |
| O=C(O)c1cccc(-c2ccc(/C=N/N3C(=O)C4C(C3=O)C3C=CC4C34CC4)o2)c1 (configuration not stated) | 8.9 |
| COc1cc(/C=C2\C(=O)NC(=S)N(c3ccc(Cl)cc3)C2=O)ccc1OCC(=O)O | 7.5 |
| CCOc1ccc(NC(=O)c2ccc(OC)c(OC)c2)c([N+](=O)[O-])c1 | 20.5 |
| CCN(CC)c1ccc(C=Nc2cccc([N+](=O)[O-])c2C)cc1 | 12.4 |
| COc1ccc(C(=O)NC2CC(C)(C)NC(C)(C)C2)cc1OC | -2.1 |

| Compound | displacement [%] |
| --- | --- |
| CC1CC2(C)CC(C)C1(COC(=O)Nc1ccccc1)CO2 (configuration not stated) | -7.3 |
| CC(=O)CC(=O)Nc1ccc(NC(C)=O)cc1 | 0 |
| CC(C)=NNc1nc2sc3c(c2c(=O)n1-c1ccc(C)cc1)CC(C)(C)OC3 | -2.7 |
| Cn1c(=O)cc2c3c(c(Nc4cccc(Cl)c4)ccc31)C(=O)c1ccccc1-2 | 15.7 |
| CC1=C(C(=O)OC(C)C)C(c2cccs2)C2=C(CC(c3ccccc3)CC2=O)N1 (configuration not stated) | -7.4 |
| O=C(Nc1ccc(Cl)c(C(F)(F)F)c1)c1ccco1 | -5.9 |
| C#CCSc1nc2sc(C)c(C)c2c(=O)n1CC=C | 34.6 |
| CCOC(=O)c1c(-c2ccccc2)oc2ccc(OC(=O)c3cccs3)cc12 | 7.5 |
| Cc1cc(C(=O)N/N=C\c2cc(Br)ccc2OCc2ccccc2)n[nH]1 | -2 |
| O=C(c1ccc(F)cc1)N(c1ccc(Cl)cc1)C1C=CS(=O)(=O)C1 (configuration not stated) | 8.6 |
| COc1ccc(Nc2n[nH]c(C)c2[N+](=O)[O-])cc1 | 1.8 |
| COc1cc2c(cc1OC)-c1nnc(-c3ccco3)n1C(C)(C)C2 | -0.1 |
| O=C(COc1ccccc1)NCc1ccccn1 | 10 |
| COc1ccc(C2=CC(c3cccs3)C=C(c3ccc(OC)cc3)O2)cc1 | 162 |
| CC(C)CNC(=O)c1ccccc1NC(=O)CSCc1ccccc1 | 43.4 |
| COc1ccc(Cl)cc1C(=O)Nc1cccc(C)c1 | -8.3 |
| CCOc1cc(OCC)cc(C(=O)Nc2ccc(NC(=O)CC)cc2)c1 | -0.9 |
| O=C(Nc1ccccc1C(=O)NCc1ccco1)c1ccccc1 | 10.4 |
| O=c1c2ccc(Br)c3cccc(c32)c2nc3ccc4c5c(ccc(c35)n12)CC4 | 13.3 |
| O=c1oc2ccccc2c2c1ncn2C1CCCCC1 | -1.9 |
| CC(=O)c1ccc(NC(=S)Nc2ccccc2)cc1 | 2.5 |
| CC1=C(C(=O)OC2CCCCC2)C(c2ccc(Br)cc2)C2=C(CCCC2=O)N1 (configuration not stated) | -2 |

| Compound | displacement [%] |
| --- | --- |
| O=C(Nc1nnc(COc2ccc(C3CCCCC3)cc2)s1)c1cccc(Cl)c1 | 15.6 |
| CCOc1cc(/C=C2\C(=O)NC(=O)N(c3cc(C)cc(C)c3)C2=O)ccc1O | 10.5 |
| CCOc1ccc(NC(=O)C2C3/C=C\CCCCC32)cc1 (configuration not stated) | -1.2 |
| O=C1NN(c2ccc(Cl)cc2)C(=O)/C1=C\c1ccc(F)cc1 | 4 |
| CC1CCc2c(sc(NC(=O)Cc3ccccc3)c2C(N)=O)C1 (configuration not stated) | -7.2 |
| COc1ccc(CC(=O)ONC(=O)c2ccc(Cl)cc2)cc1OC | 12.8 |
| O=C(NC(=S)NCCc1ccccc1)c1ccccc1 | 12.2 |
| CC1=C(C(=O)Nc2ccc(Cl)cc2)C(c2ccc(Cl)cc2Cl)NC(=S)N1 (configuration not stated) | -5.7 |
| O=C1Nc2ccc([N+](=O)[O-])cc2C12NN=C(c1ccccc1)S2 (configuration not stated) | 33.5 |
| O=C(NCc1ccc2c(c1)OCO2)c1ccc(S(=O)(=O)N2CCCC2)cc1 | 1.1 |
| O=C1CN(C(=O)c2ccc([N+](=O)[O-])cc2)c2ccccc2N1 | 3 |
| CCSC1=C(C#N)C(c2ccc(Br)cc2)CC(=O)N1 (configuration not stated) | -1.5 |
| COc1ccc(-c2ccc(-c3nnc(-c4ccc([N+](=O)[O-])cc4)o3)cc2)cc1 | -5.3 |
| COc1ccccc1N1CCN(C(=O)c2ccc(C)c(C)c2)CC1 | 1.6 |
| CC1CCc2nc(NC(=O)c3ccc(S(=O)(=O)N4CCCc5ccccc54)cc3)sc2C1 (configuration not stated) | 7.8 |
| O=C(COc1ccccc1)Nc1ccc(C(=O)OC2CCCCC2)cc1 | -4.8 |
| O=C1NC(=S)N/C1=C/c1ccc(N2CCOCC2)cc1 | 94.5 |
| COc1cc2c(cc1OC)C(CSc1ccccc1C(=O)O)=NC(C)(C)C2 | 0.5 |
| COc1ccc(NS(=O)(=O)c2ccc(F)cc2)c([N+](=O)[O-])c1 | -2.5 |
| CCc1ccc(/C=C2\SC(=O)NC2=O)cc1 | 8.8 |
| CCOC(=O)C1=CC2(SC=C(C(=O)OCC)S2)C2=C(S1)C(C)(C)N(C(=O)CC)c1ccc(C)cc12 (configuration not stated) | 0.1 |
| COc1cc(/C=C2\C(=O)NC(=S)N(c3ccccc3)C2=O)c([N+](=O)[O-])cc1OC | 19.6 |

| Compound | displacement [%] |
| --- | --- |
| CC(=O)Oc1cccc(N2C(=O)C3C4C=CC(C4)C3C2=O)c1 (configuration not stated) | 4.1 |
| CCOc1ccc(NC(=O)C(=O)NCc2ccc(C)cc2)cc1 | 0.4 |
| COC(=O)c1ccccc1NC(=O)c1ccc(-c2ccccc2)cc1 | 12.1 |
| CCN(CC)c1nc(-c2ccccc2Cl)nc2ccccc12 | 6.9 |
| FC(F)(F)c1ccccc1CN1CCN(Cc2ccc3ccccc3c2)CC1 | -12 |
| CC(=O)/C(C1=C(C(C)(C)C)C(=O)C(=O)C(C(C)(C)C)=C1)=C(/C)O | -5.5 |
| CCN(CC)C(=O)CN(c1ccccc1OC)S(=O)(=O)c1ccccc1 | -0.6 |
| CC1(C)Cc2c(sc3nc(SCCOc4ccccc4)n(-c4ccccc4)c(=O)c23)CO1 | 2.6 |
| Cc1cc(=O)cc(C)n1-c1ccc(Cl)cc1 | 2.2 |
| C/C(=N\OCC(=O)N/N=C/c1ccccc1O)c1cccs1 | -17.4 |
| CN1CCN(c2ccc3c4c(cccc24)C(=O)N(CCO)C3=O)CC1 | 155 |
| Cc1cccc(-n2c(CCN3C(=O)c4ccccc4C3=O)nc3ccccc3c2=O)c1 | -11.3 |
| COc1ccc(/C=C/C(=O)c2c(C)nc3ccc(Br)cc3c2-c2ccccc2)cc1OC | -22.1 |
| Cc1cc(N(C)/N=C/c2cccnc2)nc(-c2ccccc2O)n1 | -2.7 |
| COc1cc(OC)cc(C(=O)N2CCN(C(=O)c3ccccc3OC)CC2)c1 | -0.4 |
| Cc1onc(-c2ccccc2)c1C(=O)Nc1cccc(Br)c1 | -7.8 |
| Cc1cc(OCCN2CCOCC2)ccc1Cl | -1.9 |
| FC(F)(F)c1ccccc1CN1CCN(C2CCCCC2)CC1 | 1.4 |
| COc1ccc(-c2[nH]ncc2/C=N/NC(=O)c2ccc(Br)cc2)c(OC)c1 | 0.2 |
